Experimental findings from patent publication US20250188166A1 (BRIGHT PEAK THERAPEUTICS, published 2025) are described below.

Read-outs that look alike come from different tables or passages of the source.

Usually EC50 (read off the curve) stands for the midpoint of the concentration-response curve. As a reminder, the Kd is a measure of binding affinity in units of concentration. The term koff denotes a measure of how fast the partners let go of each other. What is called kon is the second-order rate constant of association. A lower kon goes with slower complex formation.

Experiment [1] addresses T1, recombinant Human Fc gamma RI/CD64 Protein (human, UniProt P12314 16-288).
T1 construct: also called FcγRI/(CD64); human Fc gamma receptor I
Nature of the experiment: ELISA: immunocytokine coated (2.5 µg/ml), His-tagged recombinant human FcγRI/CD64 titrated (x-axis), anti-His-HRP/TMB, 450 nm.

Experiment [2] has as its target T2, Biotinylated Recombinant Human PD-1/CD279-Fc Chimera (human, UniProt Q15116 part only, biotinylated).
T2 construct: Bought (Biolegend #789406); also called recombinant biotinylated human PD-1
Nature of the experiment: ELISA; antibody coated, biotinylated human PD-1-Fc titrated. (In general: In an ELISA, binding on a coated surface is turned into a signal by an enzyme label.)

Experiment [3] concerns the target human PD-1 on Jurkat T cells (human, UniProt Q15116 25-288). Nature of the experiment: cell-based or functional assay.
Experiment [4] concerns the target T3, His-tagged human PD1 (human, UniProt Q15116 part only).
T3 construct: Bought (R&D #8986-PD)
Nature of the experiment: BLI (Octet); antibody on AHC sensor, His-tagged human PD1 as analyte. For orientation: In BLI a coated tip is dipped into the sample, and binding shifts an interference pattern.

The target of experiment [5] is T2, Biotinylated Recombinant Human …. Nature of the experiment: ELISA: immunocytokine coated on the plate (5 µg/ml), biotinylated human PD-1-Fc titrated (x-axis), streptavidin-HRP/TMB, 450 nm.
The target in experiment [6] is T1, recombinant Human Fc gamma RI/CD64 …. Nature of the experiment: ELISA; antibody coated, His-tagged receptor titrated.
For experiment [7], the target named is T4, recombinant Human Fc gamma RIIB/CD32b Avi-tag Protein (human, UniProt P31994 46-217).
T4 construct: also called FcγRIIb (CD32b)
T4 sequence (looked up): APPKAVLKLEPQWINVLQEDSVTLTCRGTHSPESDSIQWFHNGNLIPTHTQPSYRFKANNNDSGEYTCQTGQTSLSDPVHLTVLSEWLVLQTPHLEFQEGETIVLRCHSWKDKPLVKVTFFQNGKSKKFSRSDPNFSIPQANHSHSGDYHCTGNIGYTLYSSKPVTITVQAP
The description is as above.

The target in experiment [8] is T5, recombinant Human Fc gamma RIIA/CD32a (H167) Protein (human, UniProt P12318 36-218, limits assumed).
T5 construct: also called FcγRIIa (CD32a)
T5 sequence (looked up): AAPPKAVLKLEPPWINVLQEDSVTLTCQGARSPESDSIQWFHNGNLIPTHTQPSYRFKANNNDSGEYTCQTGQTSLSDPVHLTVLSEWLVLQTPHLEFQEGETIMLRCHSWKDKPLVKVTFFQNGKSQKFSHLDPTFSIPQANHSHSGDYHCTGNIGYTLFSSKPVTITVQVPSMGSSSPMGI
Described as above.

Experiment [9] deals with T6, recombinant Human Fc gamma RIIIA/CD16a Protein (human, UniProt P08637 part only, limits assumed).
T6 construct: also called FcγRIIIa (CD16)
Described as above.

Experiment [10] addresses T2, Biotinylated Recombinant Human …. Nature of the experiment: ELISA; antibody coated, biotinylated human PD-1-Fc titrated. This is another data set of the same source.
For experiment [11], the target named is T7, IL-18R on HEK-Blue IL18R reporter cells (UniProt Q13478 19-541; O95256 20-599).
T7 sequence (looked up) 1: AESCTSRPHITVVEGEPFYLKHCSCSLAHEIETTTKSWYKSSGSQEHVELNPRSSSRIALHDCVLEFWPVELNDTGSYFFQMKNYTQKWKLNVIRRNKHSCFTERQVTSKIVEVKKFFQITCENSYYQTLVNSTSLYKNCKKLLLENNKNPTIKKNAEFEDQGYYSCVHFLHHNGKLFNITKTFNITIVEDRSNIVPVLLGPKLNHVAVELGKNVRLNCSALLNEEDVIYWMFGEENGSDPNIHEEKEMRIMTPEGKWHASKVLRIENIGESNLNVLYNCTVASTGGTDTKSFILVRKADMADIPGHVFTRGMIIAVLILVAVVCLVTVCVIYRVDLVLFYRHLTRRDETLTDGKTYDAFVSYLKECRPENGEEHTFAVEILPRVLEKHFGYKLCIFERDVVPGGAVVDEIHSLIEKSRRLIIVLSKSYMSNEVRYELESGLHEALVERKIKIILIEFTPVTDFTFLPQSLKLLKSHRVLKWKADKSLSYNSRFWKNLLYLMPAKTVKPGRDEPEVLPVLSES
T7 sequence (looked up) 2: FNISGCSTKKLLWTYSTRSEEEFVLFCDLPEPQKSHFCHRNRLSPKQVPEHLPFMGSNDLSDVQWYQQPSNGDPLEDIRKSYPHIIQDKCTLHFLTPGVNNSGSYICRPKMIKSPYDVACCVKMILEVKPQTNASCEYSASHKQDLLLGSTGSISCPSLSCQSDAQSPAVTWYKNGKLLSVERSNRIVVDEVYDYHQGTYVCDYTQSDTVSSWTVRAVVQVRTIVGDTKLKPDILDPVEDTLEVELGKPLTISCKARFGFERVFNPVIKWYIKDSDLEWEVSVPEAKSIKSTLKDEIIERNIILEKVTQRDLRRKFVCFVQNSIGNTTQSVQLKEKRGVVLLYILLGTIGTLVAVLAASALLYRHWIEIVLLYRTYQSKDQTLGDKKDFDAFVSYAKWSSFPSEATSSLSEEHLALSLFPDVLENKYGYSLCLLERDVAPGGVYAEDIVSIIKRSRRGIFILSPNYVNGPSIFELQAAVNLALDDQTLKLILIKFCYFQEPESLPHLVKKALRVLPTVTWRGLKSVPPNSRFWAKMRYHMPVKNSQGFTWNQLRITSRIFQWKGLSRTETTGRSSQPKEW
Nature of the experiment: cell-based or functional assay.

Experiment [12] has as its target T3, His-tagged human PD1. Nature of the experiment: BLI (Octet); antibody on AHC sensor, His-tagged human PD1 as analyte. The source holds these as a separate data set.
Experiment [13] has as its target T7, IL-18R on HEK-Blue IL18R reporter cells. Nature of the experiment: cell-based or functional assay. The source holds these as a separate data set.

T3 sequence (Q15116 25-167 limits assumed): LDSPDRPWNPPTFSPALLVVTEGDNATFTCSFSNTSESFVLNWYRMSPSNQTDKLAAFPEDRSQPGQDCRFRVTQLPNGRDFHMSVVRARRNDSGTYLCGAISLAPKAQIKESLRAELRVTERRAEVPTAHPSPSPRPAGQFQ
T1 sequence (P12314 16-288 limits assumed): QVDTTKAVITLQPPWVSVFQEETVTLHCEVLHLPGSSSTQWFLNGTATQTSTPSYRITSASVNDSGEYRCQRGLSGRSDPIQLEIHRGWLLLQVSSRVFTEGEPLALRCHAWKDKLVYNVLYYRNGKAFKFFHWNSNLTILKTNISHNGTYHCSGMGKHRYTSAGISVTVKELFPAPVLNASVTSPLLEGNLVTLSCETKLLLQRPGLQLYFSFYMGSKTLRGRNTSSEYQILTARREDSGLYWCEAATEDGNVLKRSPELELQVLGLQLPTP
T6 sequence (P08637 17-208 limits assumed): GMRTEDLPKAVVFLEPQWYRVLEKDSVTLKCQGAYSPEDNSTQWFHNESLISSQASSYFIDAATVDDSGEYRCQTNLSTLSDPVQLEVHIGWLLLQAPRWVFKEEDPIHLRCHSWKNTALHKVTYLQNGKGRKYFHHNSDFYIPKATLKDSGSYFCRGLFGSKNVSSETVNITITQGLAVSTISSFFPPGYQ

B1: Composition A (LZM-009 conjugated to IL-18 polypeptide SEQ ID NO: 30) (other)
heavy: QVQLVQSGAEVKKPGASVKVSCKASGYTFTSYYMYWVRQAPGQGLEWMGGVNPSNGGTNFNEKFKSRVTITADKSTSTAYMELSSLRSEDTAVYYCARRDYRYDMGFDYWGQGTTVTVSSASTKGPSVFPLAPCSRSTSESTAALGCLVKDYFPEPVTVSWNSGALTSGVHTFPAVLQSSGLYSLSSVVTVPSSSLGTKTYTCNVDHKPSNTKVDKRV[human IgG4 Fc with S228P (EU numbers) omitted]
light: EIVLTQSPATLSLSPGERATISCRASKGVSTSGYSYLHWYQQKPGQAPRLLIYLASYLESGVPARFSGSGSGTDFTLTISSLEPEDFATYYCQHSRELPLTFGTGTKVEIKRTVAAPSVFIFPPSDEQLKSGTASVVCLLNNFYPREAKVQWKVDNALQSGNSQESVTEQDSKDSTYSLSSTLTLSKADYEKHKVYACEVTHQGLSSPVTKSFNRGEC
chain: YFGKLKSKLSIIRNLNDQVLFIDQGNRPLFEDMTDSDARDNAPRTIFIISMYADSQPRGMAVAISVKCEKISTLSAENKIISFKEMNPPDNIKDTKSDIIFFQRSVPGHDNKMQFESSSYEGYFLAAEKERDLFKLILKKEDELGDRSIMFTVQNED
modifications: chemically linked to antibody Fc K248; point of attachment in the exemplary protocol is C68; chemical linker to the IL-18 polypeptide on residue K248 of the Fc region (EU numbering) of one heavy …
B1: the “EC50 (read off the curve)” value was around 0.3 nM in [1], around 3 nM in [3] and around 0.07 nM in experiment [5]. For the same molecule, the Kd in experiment [2] was found to be 0.0467 nM; in experiment [4] it was 11.5 nM; in experiment [6], 0.25 nM; in experiment [7], 436 nM; in experiment [8], 1890 nM; in [9], 598 nM. The molecule further yielded a dissociation rate constant (koff) in experiment [4] of 0.00479 s⁻¹. This molecule also returned an on-rate (kon) in [4] of 454000 M⁻¹ s⁻¹.

B2: CMP2002 (other)
heavy: B1 heavy
light: YFGKLKSKLSIIRNLNDQVLFIDQGNRPLFEDMTDSDARDNAPRTIFIISMYADSQPRGMAVAISVKCEKISTLSAENKIISFKEMNPPDNIKDTKSDIIFFQRSVPGHDNKMQFESSSYEGYFLAAEKERDLFKLILKKEDELGDRSIMFTVQNEDGGGGSGGGGSGGGGSEIVLTQSPATLSLSPGERATISCRASKGVSTSGYSYLHWYQQKPGQAPRLLIYLASYLESGVPARFSGSGSGTDFTLTISSLEPEDFATYYCQHSRELPLTFGTGTKVEIKRTVAAPSVFIFPPSDEQLKSGTASVVCLLNNFYPREAKVQWKVDNALQSGNSQESVTEQDSKDSTYSLSSTLTLSKADYEKHKVYACEVTHQGLSSPVTKSFNRGEC
notes: expressed in CHO K1 cells
Take B2: the Kd in experiment [10] was found to be 0.0702 nM. The “EC50 (read off the curve)” value in experiment [11] is around 0.08 pM. In experiment [12], this molecule showed a Kd of 39 nM, a koff of 0.00895 s⁻¹ and a kon of 230000 M⁻¹ s⁻¹.

B3: IL-18 polypeptide SEQ ID NO: 39 (E06K, K53A) (ligand)
chain: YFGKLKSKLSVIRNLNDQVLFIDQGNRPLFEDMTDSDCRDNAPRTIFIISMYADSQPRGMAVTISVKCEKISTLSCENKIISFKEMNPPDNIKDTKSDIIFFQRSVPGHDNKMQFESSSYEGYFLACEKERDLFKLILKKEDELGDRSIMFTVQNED
B3: the “EC50, HEK-Blue IL18R SEAP reporter” value in [13] came out at 0.00072 nM.
